# Values joined by “and” are separate entries in the source; they are usually repeats but may differ in a detail not shown here. Equal entries are not always repeated.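 Step 1: Grow cells in 96-well plates. Step 2: Expose to compound for 48 hours at 5 concentrations. Step 3: Interpolate endpoints linearly; if unreached, use highest concentration. At the GI50, growth is halved. TGI is the concentration that stops growth completely.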
# Tested on: NCI-H322M lung
# Assay: NCI anticancer screen, dose series, 48 h
SMILES,TGI,GI50
CC1=NNC(=S)NCCCN2CCN(CCCNC(=S)NN=C(C)C=NNC(=S)NCCCN3CCN(CCCNC(=S)NN=C1)CC3)CC2,> 100 µM,
O=C1CSC(c2ccccc2O)N1c1ccc(Oc2ccc(Cl)cc2)c(Cl)c1 (configuration not stated),52.3 µM,
COc1c(CC=C(C)C)c(O)c(C(CC(C)C)c2c(O)c(CC=C(C)C)c(O)c(C(C)=O)c2O)c(O)c1C(C)=O (configuration not stated),11.3 µM,
O=C(N/N=C(\C1=Nc2ccc(Cl)cc2NC1O)C(O)/C=C/c1ccccc1)c1ccncc1 (configuration not stated),> 100 µM,
O=C(/C=C(\Nc1ccccc1O)c1ccc(Br)cc1)C(Cl)(Cl)Cl,7.09 µM,
C[C@@]1(OC(=O)c2cc([N+](=O)[O-])cc([N+](=O)[O-])c2)C[C@@H]2CCCC[C@@H]21,> 100 µM,
O=C1c2ccccc2C(=O)c2c1cc1c(c2[N+](=O)[O-])OCO1,13.3 µM,2.7 µM
C/C(=N\NC(=S)N1CCN(c2ccccn2)CC1)c1ncccn1,5.09 µM and 13.6 µM,0.186 µM
Cc1cc(O)c2c3c(ccc2c1)C(=O)c1c(O)cccc1C3=O,> 100 µM,
C=C(CCC=C(C)C)C1CC=C(C)CC1 (configuration not stated),> 100 µM,
CN(CCNC(=S)c1cn(C)c2c1ccc1ccccc12)CCNC(=S)c1cn(C)c2c1ccc1ccccc12,> 100 µM,
COc1ccc(C(=O)Oc2c(C#N)sc3c2c(=O)n(-c2ccccc2)c(=S)n3-c2ccccc2)cc1,> 100 µM,
CN(C)CC(/C(Cc1ccccc1)=N\NC(=S)NN)c1ccccc1 (configuration not stated),> 100 µM,
C=C(C)CCC1CC=[N+]([O-])OC1C(C)(C)C (configuration not stated),> 100 µM,
O=C(CO)C1CC2C=CC1C2 (configuration not stated),> 100 µM,
c1cc(CN2CCNCCNCCNCC2)cc(CN2CCNCCNCCNCC2)c1,> 100 µM,
CN1C(=NCCO)NS(=O)(=O)c2ccccc21,> 100 µM,
N#CCNC(=O)c1ccc(-c2ccnc(Nc3ccc(N4CCOCC4)cc3)n2)cc1,> 10 µM and 38 µM,5.24 µM and 2.28 µM
COc1ccc(-c2[nH]c3ccccc3c2/C=C(\C#N)S(=O)(=O)c2ccccc2)cc1,> 100 µM,1.36 µM
NC(CCCCNCc1ccccc1O)C(=O)O (configuration not stated),> 100 µM,
C[C@H]1C(=O)c2c(cc(O)c(C3OC(CO)C(O)C(O)C3O)c2O)OC1c1ccc(O)c(O)c1 (some centres not stated),> 100 µM,
COc1cc(-c2cc(=O)c3ccccc3[nH]2)cc(OC)c1OC,> 75 µM,
O=c1[nH]c(=S)[nH]c(-c2ccccc2)c1Cc1c(O)ccc2ccccc12,77.7 µM,

SMILES,TGI,GI50
C[C@H]1C[C@H]2[C@@H]3CCC4=CC(=O)C=C[C@]4(C)C3=CC[C@]2(C)[C@@]1(O)C(=O)CO,> 100 µM,
O=S(=O)(O)c1ccc2cc(N=Nc3c(O)ccc4ccccc34)ccc2c1,> 100 µM,
c1ccc2c(-c3csc(-c4c[nH]c5ccccc45)n3)c[nH]c2c1,> 100 µM,
CS(=O)(=O)C1(Br)S(=O)(=O)OCCOS1(=O)=O,> 100 µM,
N#CNC1=NC(N)C(c2nc3ccccc3[nH]2)=C(CCCC(=O)Nc2cccc([N+](=O)[O-])c2)N1 (configuration not stated),> 100 µM,
Nc1ccc(-c2nc3ccc(F)cc3s2)cc1I,> 100 µM,
Cc1ccc(C2=Nc3ccccc3SC(c3cccc4c3OCO4)C2)cc1 (configuration not stated),45.9 µM,
Cc1ccc(S(=O)(=O)NC(=O)Nc2cc(Cl)c(S(N)(=O)=O)cc2S(N)(=O)=O)cc1,> 100 µM,
COC(=O)c1ccc(C=C(C#N)C#N)cc1,> 100 µM,
Cc1nc(N(C(C)C)C(C)C)c(C(C)C)o1,> 100 µM,
O=C(NCCCCCCCN1CCCCCCC1)C(C1CCCCC1)C1CCCCC1,27.1 µM,
CC(C)=CCC/C(C)=C/CCC1(C)C=Cc2c(c3ccccc3oc2=O)O1 (configuration not stated),31 µM,
CN(C)C(F)=PC(F)(F)F (configuration not stated),> 100 µM,
O=c1n(-c2ccccc2)c(=O)n2c(-c3ccccc3)c(-c3ccccc3)n12,> 100 µM,
COCCOCCOCCOCCOC(=O)OC[n+]1ccc(NC(=NCCCCCCOc2ccc(Cl)cc2)NC#N)cc1,25.6 µM,12.8 µM
COc1ccc(S(=O)(=O)N2CCNCC2)cc1OC,> 100 µM,> 100 µM
O=[N+]([O-])c1cc(Cc2cc([N+](=O)[O-])c3cccnc3c2O)c(O)c2ncccc12,47.2 µM,
C=CCN(CC=C)C(=O)[C@H](CC)[C@@H]1CC[C@@H](C)[C@@H]([C@H](C)[C@@H](O)[C@@H](C)C(=O)[C@H](CC)C2O[C@]3(C=C[C@@H](O)[C@]4(CC[C@@](C)([C@H]5CC[C@](O)(CC)[C@H](C)O5)O4)O3)[C@H](C)C[C@@H]2C)O1 (some centres not stated),6.77 µM,2.31 µM
N#Cc1c(NC(=O)c2ccccc2F)sc2c1CCCC2,> 25 µM,> 25 µM
O=C1C(Sc2ccc3ccccc3c2)=C(Sc2ccc3ccccc3c2)C(=O)c2ccccc21,40.4 µM,
CC(=O)N(O)c1ccc(/C=C/c2ccccc2)cc1,12 µM,3.07 µM
CC(=O)Nc1ccc(S(=O)(=O)NN(C)S(=O)(=O)c2ccc(C)cc2)cc1,> 100 µM,
Cc1ccc(/N=N/C(=NNC(=O)c2ccc(C)cc2)c2ccc(N(C)C)cc2)cc1,> 100 µM,

SMILES,TGI,GI50
CC(C)=CC(=O)OC1C2C(C)=CC(O)C(O)C2(C)C2C3(O)OCC24C(CC(=O)OC14)C(C)C3O (configuration not stated),5.99 µM,
Fc1ccc2nc(-c3nc(-c4ccccc4)n4ccccc34)[nH]c2c1,10.5 µM,3.18 µM
C/C(=N\NC(=S)Nc1ccc([N+](=O)[O-])cc1)c1nc2ncccc2[nH]1,> 100 µM,
C=CCNC(=O)CN(CC(=O)OC)C1CCCCC1N(CC(=O)OC)CC(=O)OC (configuration not stated),> 100 µM,
CN(C)c1nc(N)c(C#N)c(C#N)c1C#N,> 10 µM,
c1cncc(CSc2ncnc3nc[nH]c23)c1,> 100 µM,
CC(=O)NCCCCN(CCCNC(C)=O)C(=O)OCc1ccccc1,> 100 µM,
C/C(=N\NC(=O)C(N)=O)c1c(O)cc(C)oc1=O,> 100 µM,
N#C/C(=C1\OC(=N)C(c2ccc(Cl)cc2Cl)C1=O)c1ccc(Cl)cc1Cl (configuration not stated),> 100 µM,
O=C1C(Nc2cccc(O)c2)=C(Sc2ccccc2)C(=O)N1Cc1ccccc1,25.5 µM,12.9 µM
COc1ccc(C2CC(c3ccc(N(C)C)cc3)=NN2c2ccc(S(N)(=O)=O)cc2)cc1 (configuration not stated),> 100 µM,5.13 µM
O=c1[nH]c2ccccc2n1C1CCN(CCCC(c2ccc(F)cc2)c2ccc(F)cc2)CC1,6.14 µM and 25.1 µM,2.33 µM
C/C(N=NS(=O)(=O)c1ccc(C)cc1)=C1\C=CC=CN1O,> 100 µM,
COc1cc(C(=O)C2CC3(CCC2(O)c2cc(OC)c(OC)c(OC)c2)CC(=O)Nc2ccccc2C3=O)cc(OC)c1OC (configuration not stated),> 100 µM,
NC(=O)c1sc2nc3ccccc3n2c1N,> 100 µM,
COc1ccc(COc2cc3oc(=O)c4cc(C(C)O)ccc4c3cc2OC)cc1 (configuration not stated),> 100 µM,26 µM
CN1CCCC1c1cccnc1.O=C(O)c1ccccc1O.O=C([O-])c1ccccc1[OH2+].O=C([O-])c1ccccc1[OH2+].[Mn+2] (configuration not stated),> 100 µM,> 100 µM
COc1ccc2nc3cc(Cl)ccc3c(N3CCN(c4ccnc(N5CCN(C)CC5)n4)CC3)c2c1,25.1 µM,10.7 µM
COc1cc(/C=C/C(=O)O[C@H]2[C@H](O[C@@H]3O[C@@H](C)[C@H](O)[C@@H](O)[C@H]3O)[C@@H](O)[C@H](OCCc3ccc(O)c(O)c3)O[C@@H]2COC2OCC(O)(CO)C2O)ccc1O (some centres not stated),> 100 µM,85 µM
BrCc1ccc(CBr)c2c1-c1c(CBr)ccc3ccc(CBr)c-2c13,> 100 µM,
Nc1nc2c(ncn2CCCC(c2ccccc2)P(=O)(O)O)c(=O)[nH]1 (configuration not stated),> 100 µM,
Cn1c(C(=O)c2cccc3ccccc23)nc2ccccc21,> 100 µM,> 100 µM
O=c1cc(CNC2CC3CCC2C3)[nH]c(=O)[nH]1 (configuration not stated),> 100 µM,

SMILES,TGI,GI50
O=C(Nc1ccc2[nH]c(C(=O)N3CC(CCl)c4ccc([N+](=O)[O-])cc43)cc2c1)c1cc2ccccc2o1 (configuration not stated),> 1100 µM,
O=C1/C(=C/c2ccccc2O)N=C(c2ccccc2)N1c1cc(C(F)(F)F)ccc1Cl,> 100 µM,> 100 µM
CSC(=N)N1N=C2/C(=C/c3ccccc3)CCC[C@H]2[C@H]1c1ccccc1,13.5 µM,
COc1ccc(/C=N\Nc2nc(SCC(C)C)nc(-c3ccc(OC)cc3)c2C#N)cc1,76.2 µM,4.47 µM
NCc1ccc(-c2nc(-c3ccc(Cl)c(O)c3)c(-c3ccncc3)[nH]2)cc1,> 25 µM,> 25 µM
COc1cc(-c2ncn(/C=C\c3nnco3)n2)cc(C(F)(F)F)c1,47.5 µM,0.262 µM
Cc1c(C2=NN=C(N=Nc3c(O)cccc3O)/C2=C/c2ccccc2)c(=O)n(-c2ccccc2)n1C,> 100 µM,
C[C@H]1CN(C2COC2)CCN1c1ccc(Nc2cc(-c3ccnc(N4CCn5c(cc6c5CC(C)(C)C6)C4=O)c3CO)cn(C)c2=O)nc1,> 100 µM,41.7 µM
CSc1nc2c3ccccc3ccn2c1C(=O)N/N=C/c1ccccc1,> 100 µM,
COc1ccc(-c2c3c(N)c4c(nc3nc3c2c(C)nn3-c2ccccc2)CCCC4)cc1,10.5 µM,2.92 µM
CC(=O)N(CC(=O)C(=O)NNc1ccoc1)c1ccc(Cl)cc1,> 100 µM,
Cc1nnc(N/N=C(/C(=O)C(C#N)c2ccc(Cl)cc2)C(C#N)c2ccc(Cl)cc2)n1N (configuration not stated),30.3 µM,
CNC(=O)CCCNC(=O)CCCC(=O)OC,> 100 µM,
c1ccc2c(CNCCN3CCNCC3)c3ccccc3c(CNCCN3CCNCC3)c2c1,34.6 µM,8.91 µM
CC(=O)O[C@@H]1[C@H]2[C@@H](OC(=O)c3ccccc3)[C@@H](C)C[C@]2(O)[C@H](OC(C)=O)[C@@]2(C)[C@@H]3C[C@@](C)(OC(C)=O)C[C@@H](OC(C)=O)[C@@]3(OC(C)=O)C[C@@]12C,> 10 µM,
Clc1nc(Cl)c2ncn(CCOCCn3cnc4c(Cl)nc(Cl)nc43)c2n1,3.04 µM,1.65 µM
COc1cc2c(cc1NC(=O)C(Cl)Cl)-c1ccc(NC(=O)C(Cl)Cl)cc1C2,1.92 µM,0.595 µM
CN(C)CCCn1c2c(c3cc4c(cc3c1=O)OCO4)C(=O)c1ccccc1-2,10.5 µM,3.12 µM
CCCCN(C)C(=O)C1=C(C)NC(C)=C(C(=O)N(C)CCCC)C1,> 100 µM,
O=C(O)C12CC3CC(C1)C2C=C3P(=O)(O)O (configuration not stated),> 100 µM,
